# Source: the supplement of paper PMC9588766
# Structures can show the parent of a compound that is named as a salt. The full ranking holds about 1,900 compounds; the median of “cell viability of compound + 1 nM pemigatinib relative to pemigatinib-only (DMSO) wells” is about 0.95, and the lowest 2% start at about 0.22. This is one part of the list.
# Tested on: PDC-DUC18828
# Assay: cell viability of compound + 1 nM pemigatinib relative to pemigatinib-only (DMSO) wells (fraction); PDC-DUC18828 is a patient-derived cholangiocarcinoma cell line; higher = less growth inhibition
# Details: first compound 1 µM; pemigatinib concentration 1 nM; 72 h
# Protocol: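 Selleck Bioactive library screen in the patient-derived FGFR2 fusion-positive ICC cell line PDC-DUC18828 (500 cells/well). Each compound was tested at 1 uM with 1 nM pemigatinib, in triplicate, for 72 h. Viability was read by CellTiter-Glo and normalised to plate DMSO controls. Value is the paper's averaged normalised viability.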
row,Structure (SMILES),cell viability
1,Cc1c(-c2ccccc2)oc2c(C(=O)OCCN3CCCCC3)cccc2c1=O [Flavoxate HCl] + CCN1C(=O)N(c2c(F)c(OC)cc(OC)c2F)Cc2cnc3[nH]c(CN4CCOCC4)cc3c21 [pemigatinib],0.975
2,CCN(CC)CCOC(=O)c1ccc(N)cc1Cl [Chloroprocaine HCl] + CCN1C(=O)N(c2c(F)c(OC)cc(OC)c2F)Cc2cnc3[nH]c(CN4CCOCC4)cc3c21 [pemigatinib],1.04
3,C#Cc1cccc(Nc2ncnc3cc(OCCOC)c(OCCOC)cc23)c1 [Erlotinib HCl (OSI-744)] + CCN1C(=O)N(c2c(F)c(OC)cc(OC)c2F)Cc2cnc3[nH]c(CN4CCOCC4)cc3c21 [pemigatinib],0.838
4,C#Cc1cccc(Nc2ncnc3cc(OCCOC)c(OCCOC)cc23)c1 [Erlotinib] + CCN1C(=O)N(c2c(F)c(OC)cc(OC)c2F)Cc2cnc3[nH]c(CN4CCOCC4)cc3c21 [pemigatinib],0.817
5,COc1ccc(Cn2ccc3ccc(C(=O)NO)cc32)cc1 + CCN1C(=O)N(c2c(F)c(OC)cc(OC)c2F)Cc2cnc3[nH]c(CN4CCOCC4)cc3c21 [pemigatinib],0.949
6,CC#CC(=O)N1CC[C@@H](n2c(=O)n(-c3ccc(Oc4ccccc4)cc3)c3c(N)ncnc32)C1 + CCN1C(=O)N(c2c(F)c(OC)cc(OC)c2F)Cc2cnc3[nH]c(CN4CCOCC4)cc3c21 [pemigatinib],0.853
7,Cc1onc(-c2ccccc2Cl)c1C(=O)N[C@@H]1C(=O)N2[C@@H]1SC(C)(C)[C@@H]2C(=O)O [Cloxacillin Sodium] + CCN1C(=O)N(c2c(F)c(OC)cc(OC)c2F)Cc2cnc3[nH]c(CN4CCOCC4)cc3c21 [pemigatinib],0.952
8,NC(=O)c1cnc(N[C@@H]2CCCC[C@@H]2N)nc1Nc1cccc(-n2nccn2)c1 + CCN1C(=O)N(c2c(F)c(OC)cc(OC)c2F)Cc2cnc3[nH]c(CN4CCOCC4)cc3c21 [pemigatinib],0.825
9,CN[C@@H]1[C@H](O)[C@H](NC)[C@H]2O[C@@]3(O)C(=O)C[C@@H](C)O[C@H]3O[C@@H]2[C@H]1O [Spectinomycin HCl] + CCN1C(=O)N(c2c(F)c(OC)cc(OC)c2F)Cc2cnc3[nH]c(CN4CCOCC4)cc3c21 [pemigatinib],0.958
10,NS(=O)(=O)c1cc2c(cc1Cl)NC(C(Cl)Cl)NS2(=O)=O (centres undefined) [Trichlormethiazide] + CCN1C(=O)N(c2c(F)c(OC)cc(OC)c2F)Cc2cnc3[nH]c(CN4CCOCC4)cc3c21 [pemigatinib],0.952
11,C[S+]([O-])c1ccc(-c2nc(-c3ccc(F)cc3)c(-c3ccncc3)[nH]2)cc1 (centres undefined) + CCN1C(=O)N(c2c(F)c(OC)cc(OC)c2F)Cc2cnc3[nH]c(CN4CCOCC4)cc3c21 [pemigatinib],1.05
12,COc1cc2c(Oc3ccc(NC(=O)C4(C(=O)Nc5ccc(F)cc5)CC4)cc3F)ccnc2cc1OCCCN1CCOCC1 + CCN1C(=O)N(c2c(F)c(OC)cc(OC)c2F)Cc2cnc3[nH]c(CN4CCOCC4)cc3c21 [pemigatinib],0.679
13,COc1ccccc1Oc1c(NS(=O)(=O)c2ccc(C(C)(C)C)cc2)nc(-c2ncccn2)nc1OCCO [Bosentan Hydrate] + CCN1C(=O)N(c2c(F)c(OC)cc(OC)c2F)Cc2cnc3[nH]c(CN4CCOCC4)cc3c21 [pemigatinib],1
14,COc1ccccc1Oc1c(NS(=O)(=O)c2ccc(C(C)(C)C)cc2)nc(-c2ncccn2)nc1OCCO [Bosentan] + CCN1C(=O)N(c2c(F)c(OC)cc(OC)c2F)Cc2cnc3[nH]c(CN4CCOCC4)cc3c21 [pemigatinib],0.951
15,CN1CCC[C@@H]1Cc1c[nH]c2ccc(CCS(=O)(=O)c3ccccc3)cc12 [Eletriptan HBr] + CCN1C(=O)N(c2c(F)c(OC)cc(OC)c2F)Cc2cnc3[nH]c(CN4CCOCC4)cc3c21 [pemigatinib],0.957
16,C=C1/C(=C\C=C2/CCC[C@]3(C)[C@@H]([C@H](C)CCCC(C)C)CC[C@@H]23)C[C@@H](O)C[C@@H]1O [Alfacalcidol] + CCN1C(=O)N(c2c(F)c(OC)cc(OC)c2F)Cc2cnc3[nH]c(CN4CCOCC4)cc3c21 [pemigatinib],1.01
17,O=C(N[C@H](CO)[C@H](O)c1ccc([N+](=O)[O-])cc1)C(Cl)Cl [Chloramphenicol] + CCN1C(=O)N(c2c(F)c(OC)cc(OC)c2F)Cc2cnc3[nH]c(CN4CCOCC4)cc3c21 [pemigatinib],0.947
18,O=C(O)CCNC(=O)c1ccccc1 [Betamipron] + CCN1C(=O)N(c2c(F)c(OC)cc(OC)c2F)Cc2cnc3[nH]c(CN4CCOCC4)cc3c21 [pemigatinib],0.989
19,CO[C@H]1/C=C\C=C(/C)C(=O)NC2=CC(=O)C(NCCN(C)C)=C(C[C@@H](C)C[C@H](OC)[C@H](O)[C@@H](C)/C=C(\C)[C@@H]1OC(N)=O)C2=O [17-DMAG (Alvespimycin) HCl] + CCN1C(=O)N(c2c(F)c(OC)cc(OC)c2F)Cc2cnc3[nH]c(CN4CCOCC4)cc3c21 [pemigatinib],0.359
20,CCC[C@@H]1C[C@@H](C(=O)N[C@@H]([C@H]2O[C@H](SC)[C@H](O)[C@@H](O)[C@H]2O)[C@H](C)Cl)N(C)C1 [Clindamycin] + CCN1C(=O)N(c2c(F)c(OC)cc(OC)c2F)Cc2cnc3[nH]c(CN4CCOCC4)cc3c21 [pemigatinib],0.907
21,CCC[C@@H]1C[C@@H](C(=O)N[C@@H]([C@H]2O[C@H](SC)[C@H](O)[C@@H](O)[C@H]2O)[C@H](C)Cl)N(C)C1 [Clindamycin HCl] + CCN1C(=O)N(c2c(F)c(OC)cc(OC)c2F)Cc2cnc3[nH]c(CN4CCOCC4)cc3c21 [pemigatinib],0.935
22,CC1=NN(c2ccccc2)C(=O)C1 [Edaravone] + CCN1C(=O)N(c2c(F)c(OC)cc(OC)c2F)Cc2cnc3[nH]c(CN4CCOCC4)cc3c21 [pemigatinib],1
23,CCOc1ccc2ccccc2c1C(=O)N[C@@H]1C(=O)N2[C@@H]1SC(C)(C)[C@@H]2C(=O)O [Nafcillin Sodium] + CCN1C(=O)N(c2c(F)c(OC)cc(OC)c2F)Cc2cnc3[nH]c(CN4CCOCC4)cc3c21 [pemigatinib],0.938
24,CCN(CC)CCNC(=O)c1cc(Cl)c(N)cc1OC [MetoclopraMide HCl] + CCN1C(=O)N(c2c(F)c(OC)cc(OC)c2F)Cc2cnc3[nH]c(CN4CCOCC4)cc3c21 [pemigatinib],0.959
